# Data published in PMC4336329 (PLoS ONE, 2015).
# Among all 310,000 compounds or so, about 14,000 (4.5%) showed an effect of 50% or more. The effect is printed as a negative number. Some of the results follow.
# Target: human ether-à-go-go-related gene (hERG) potassium channel (human, UniProt Q12809)
# Assay: primary screen, population patch clamp on CHO cells stably expressing hERG
# 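Further: peak tail current of the secondary pulse compared with the same well before compound.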
# Chain of human ether-à-go-go-related gene (hERG) potassium channel (Q12809 whole entry, looked up): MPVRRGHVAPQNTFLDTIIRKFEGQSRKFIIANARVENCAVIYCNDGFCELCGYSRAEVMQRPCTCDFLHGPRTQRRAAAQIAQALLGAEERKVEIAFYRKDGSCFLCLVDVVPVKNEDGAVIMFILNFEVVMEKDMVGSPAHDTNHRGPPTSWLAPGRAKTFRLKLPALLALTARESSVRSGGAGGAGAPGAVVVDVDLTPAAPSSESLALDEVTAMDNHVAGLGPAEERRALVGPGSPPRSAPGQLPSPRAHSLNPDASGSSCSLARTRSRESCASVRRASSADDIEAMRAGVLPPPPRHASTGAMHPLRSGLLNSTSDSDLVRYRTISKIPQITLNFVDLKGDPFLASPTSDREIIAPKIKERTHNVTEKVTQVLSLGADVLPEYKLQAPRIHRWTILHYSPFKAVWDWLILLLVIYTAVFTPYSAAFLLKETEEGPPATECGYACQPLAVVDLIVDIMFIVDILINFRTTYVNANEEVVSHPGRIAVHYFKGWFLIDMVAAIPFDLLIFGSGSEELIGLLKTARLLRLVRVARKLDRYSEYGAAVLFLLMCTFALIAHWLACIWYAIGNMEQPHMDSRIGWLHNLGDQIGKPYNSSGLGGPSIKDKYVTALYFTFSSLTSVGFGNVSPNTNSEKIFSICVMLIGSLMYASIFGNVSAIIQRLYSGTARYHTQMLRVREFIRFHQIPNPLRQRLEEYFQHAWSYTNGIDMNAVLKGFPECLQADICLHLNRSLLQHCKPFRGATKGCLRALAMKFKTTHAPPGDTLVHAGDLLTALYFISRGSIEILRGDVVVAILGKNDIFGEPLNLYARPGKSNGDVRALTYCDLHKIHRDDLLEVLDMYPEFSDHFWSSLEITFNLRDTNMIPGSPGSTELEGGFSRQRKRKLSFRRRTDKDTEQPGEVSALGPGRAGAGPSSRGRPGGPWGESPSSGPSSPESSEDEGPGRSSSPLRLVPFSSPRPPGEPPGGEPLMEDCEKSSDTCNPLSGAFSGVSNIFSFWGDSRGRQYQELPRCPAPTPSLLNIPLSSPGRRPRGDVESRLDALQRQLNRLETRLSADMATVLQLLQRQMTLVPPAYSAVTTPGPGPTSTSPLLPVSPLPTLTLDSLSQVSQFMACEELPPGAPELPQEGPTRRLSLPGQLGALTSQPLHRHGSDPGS
row,Compound,"hERG current change (%, negative = inhibition) at 10uM [%]"
1,O=C(Nc1ccccc1)c1ccc2ccccc2n1,15.2
2,Cc1ccc(C)n1-c1nnc(N2CCC(C(=O)NCCCN3CCN(C)CC3)CC2)s1,-0.772
3,COc1ccc(/C=N/OCC(=O)N2CC3(C)CC2CC(C)(C)C3)cc1OC (stereo not shown),-3.72
4,CC(C)/C=C1\CCc2c([nH]c3ccccc23)C1=O,9.91
5,COc1ccc(-n2cnnc2SCc2ncc(-c3ccccc3)o2)cc1,-49.3
6,CCOP(=O)(OCC)C(CC)N1CCOCC1 (stereo not shown),7.31
7,COCCCn1c(SCC(=O)Nc2oc(C)c3c(C)n[nH]c(=O)c23)nc2sc3c(c2c1=O)CCC3,-49.7
8,O=C(NNc1ccc([N+](=O)[O-])cc1)C1CC2CCCC(C1)C2=O (stereo not shown),-11.3
9,Cc1[nH]n(-c2ccccc2)c(=O)c1N=Nc1ccccc1C(=O)N1CCOCC1,-32.6
10,CC(C)C(=O)Nc1cccc(-c2nc3ncccc3o2)c1,12.8
11,COc1ccc(C2=NN(C(N)=S)C(c3ccco3)C2)cc1 (stereo not shown),0.346
12,CCOC(=O)c1ccc(NC(=O)C2CCN(S(=O)(=O)c3ccccc3)CC2)cc1,-20.9
13,O=C(COC(=O)C1CC2C=CC1C2)Nc1cccc(S(=O)(=O)N2CCCCC2)c1 (stereo not shown),-47.8
14,Cc1cc(C)cc(-n2c(C)cc(/C=C3\C(=O)NC(=O)N(C)C3=O)c2C)c1,-5.02
15,Cc1cccc(C(=O)N2CCCC(N3CCN(c4ccc(F)cc4)CC3)C2)n1 (stereo not shown),-48.4
16,O=C(Nc1ccc(O)c(-c2nc3ccccc3o2)c1)C1(c2ccccc2)CCCC1,19.5
17,CN(C(=O)c1ccc2c(c1)CCN2S(C)(=O)=O)c1ccccc1,5.75
18,CN(Cc1ccccc1)C(=O)c1nc2ccccn2c1CN1CCCC1c1nccs1 (stereo not shown),-35
19,O=C(COc1ccccc1Br)N1CCN(C(=O)c2ccco2)CC1,-31.3
20,CSc1nc(N2CCOCC2)cc(N2CCOCC2)n1,7.09
21,CCSC1=NCCN1C(=O)Cc1ccc(-c2ccccc2)cc1,6.93
22,O=C(Cc1ccccc1)Nc1cccnc1,2.86
23,COc1ccc2c(c1)c(C(O)CN1CCN(Cc3ccc4c(c3)OCO4)CC1)c(C)n2C (stereo not shown),-11
24,CCOc1ccc(C2C(C#N)=C(N)Oc3n[nH]c(C)c32)cc1OC(=O)C1CC1 (stereo not shown),13.2
25,Br.C=CCN1C(c2cccc(C(F)(F)F)c2)=CS/C1=C(/C#N)c1nnc(N2CCOCC2)n1-c1ccccc1,-46.3
26,Cc1csc(NC(=O)C2CCCC2)n1,12.7
27,CCN(CC)CCCNC(CC(=O)Nc1cccc([N+](=O)[O-])c1)C(=O)O (stereo not shown),3.23
28,CNS(=O)(=O)c1cccc(C(=O)OCc2cc(=O)oc3c(C)c(O)ccc23)c1,14.1

row,Compound,"hERG current change (%, negative = inhibition) at 10uM [%]"
1,CCOC(=O)c1[nH]ncc1CN1CCCC(C(=O)c2ccc(SC)cc2)C1 (stereo not shown),-73
2,O=C(COc1ccccc1Cl)N1N=C(c2cccs2)CC1c1ccco1 (stereo not shown),-3.58
3,O=C(c1cccs1)N1CCN=C1SCc1cccnc1,-3.92
4,CCCCn1c(SCC(=O)Nc2cc(C(F)(F)F)cc(C(F)(F)F)c2)nnc1C(CC)N(C)C (stereo not shown),-23.3
5,COc1ccc(C(=O)N/N=C(/C)c2cccc(NC(=O)c3ccncc3)c2)cc1OC,8.48
6,CCc1cccc(NC(=O)Cn2ncn3c(cc4ccccc43)c2=O)c1,-2.08
7,COc1ccc(C(CC(=O)Nc2ccccn2)N2Cc3ccccc3C2=O)cc1OC (stereo not shown),-13.4
8,CC(C)c1c(C(=O)N/N=C/c2ccccc2OCc2c(F)cccc2Cl)nnn1-c1nonc1N,13.6
9,COC(=O)c1ccccc1NC(=O)CCS(=O)(=O)c1cc2c(cc1C)NC(=O)CO2,-48.8
10,COc1ccc(-n2c(SCC(=O)Nc3cccc(S(N)(=O)=O)c3)nc3ccccc3c2=O)cc1OC,9.06
11,C/C(=N\NS(=O)(=O)c1ccc([N+](=O)[O-])cc1)c1ccc2c(c1)OCO2,9.41
12,CCN(CC)c1ccc(NC(=O)CSc2nnc3nc(C)cc(C)n23)cc1,-0.579
13,COc1cc(C(=O)OCc2cc(=O)oc3c(C)c(C)ccc23)ccc1OC(F)F,9.13
14,CC(C)CC(=O)Nc1ccc2c3c(cccc13)CC2,-6.07
15,CC1(C)Cc2c(c(N3CCOCC3)nc3snc(Br)c23)CO1,-6.09
16,COC(=O)CCC(=O)OC1(C)C(=O)C=C2C=C(C3CC3)N(Cc3ccc4c(c3)OCO4)C=C2C1=O (stereo not shown),10.8
17,COC(=O)COc1ccc2oc(=O)cc(-c3cc4cccc(OC)c4o3)c2c1,21.5
18,O=C(COC(=O)Cc1cccc(C(F)(F)F)c1)NC1CCS(=O)(=O)C1 (stereo not shown),-7.29
19,O=C(COc1ccccc1)Nn1cnc2ccccc21,-0.626
20,Nc1cc([N+](=O)[O-])ccc1Nc1ccccc1,6.06
21,CCOC(=O)c1cnc(SCC(=O)Nc2sc(C)c(C)c2C#N)nc1N,14.2
22,Cc1noc(C)c1CSCC(=O)N(C)CC(=O)Nc1ccc(Cl)cc1,13.9
23,CCOC(=O)c1[nH]c(C)c(CN(CCc2ccccc2)S(C)(=O)=O)c1C,-0.689
24,CC(=O)Nc1ccc(S(=O)(=O)N2CCSC2c2ccccc2)cc1 (stereo not shown),10.9
25,COCC(C)NCc1ccc(OC)c(Br)c1.O=C(O)C(=O)O (stereo not shown),1.95
26,COc1ccccc1N1CCN(S(=O)(=O)c2cc3c(cc2C)NC(=O)CO3)CC1,-21.4
27,COC(=O)c1cc(OC)c(OC)cc1NC(=O)Cc1ccccc1[N+](=O)[O-],2.28
